# PubChem BioAssay AID1461 (National Center for Advancing Translational Sciences (NCATS), 2008)
# Where “and” joins values, the source holds several entries; their conditions need not be identical. Identical values can stand only once. About 2,300 (1%) of roughly 220,000 compounds were called active. The shares of active, inactive and inconclusive entries below differ from those in the screen. Calls come from the whole dose curve; as a rule, active = well fitted inhibition curve with a large enough effect; inconclusive = small, poorly fitted or top-dose-only effect, or effect the other way; inactive = no such curve, though single readings can be large or run the other way. Potencies of inconclusive entries are doubtful fits and often do not repeat.
# Molecular target: Neuropeptide S receptor (Homo sapiens) (UniProt Q6W5P4)
# Chain of UniProt Q6W5P4 (Q6W5P4 whole entry, looked up): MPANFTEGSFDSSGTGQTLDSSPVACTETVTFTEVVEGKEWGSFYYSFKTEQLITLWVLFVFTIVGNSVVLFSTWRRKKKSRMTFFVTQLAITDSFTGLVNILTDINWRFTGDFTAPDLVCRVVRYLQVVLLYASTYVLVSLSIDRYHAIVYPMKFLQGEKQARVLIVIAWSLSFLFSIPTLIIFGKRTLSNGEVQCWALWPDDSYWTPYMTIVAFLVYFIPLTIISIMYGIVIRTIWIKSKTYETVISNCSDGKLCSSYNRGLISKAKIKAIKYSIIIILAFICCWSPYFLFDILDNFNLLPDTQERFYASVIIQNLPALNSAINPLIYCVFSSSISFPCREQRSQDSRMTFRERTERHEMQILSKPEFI
# Assay: qHTS Assay for Antagonists of the Neuropeptide S Receptor: cAMP Signal Transduction; note: nearly all actives have a fitted effect of over 50% in size
# Details: CHO-NPSR cells, cAMP TR-FRET, antagonist mode; activity change, negative = inhibition: at 38.3 µM (top of the series) unless noted
# % is set by controls: 0 for no effect and ±100 for the full control effect; potency is the fitted concentration of half-maximal effect; tags give direction and shape of the fitted curve.
SMILES,Potency,"activity change, negative = inhibition"
Cn1cccc1/C=N/n1c(-c2ccc(C(C)(C)C)cc2)n[nH]c1=S,"inconclusive: 10 µM [inhibitor, partial curve]",
CCN(CC)S(=O)(=O)c1cc(-c2nnc(-c3ccc(Br)cc3)o2)ccc1Cl,"inconclusive: 10 µM [inhibitor, partial curve]",
Cc1cc(=O)oc2cc(OCc3nnc(-c4ccccc4Br)o3)ccc12,inactive,
CCC(C)NC(=O)CSc1nc2cc3c(cc2c(=O)n1Cc1ccco1)OCO3 (centres undefined),inactive,
Cn1c(-c2ccccc2)cc2c3no[n+]([O-])c3ccc21,"inconclusive: 10 µM [inhibitor, single point]",
S=c1[nH]nc(-c2ccccn2)n1/N=C/c1ccccc1,inactive,
CCOc1ccc(N(Cc2ccc(OC)c(OC)c2)C(=O)c2ccco2)cc1,"inconclusive: 10 µM [activator, single point]",
Cc1cccc(C(=O)NC(=S)N2CCN(C)CC2)c1,inactive,
O=C(c1ccccc1)N1N=C(c2ccccc2)CC1c1ccccc1O (centres undefined),"inconclusive: 10 µM [inhibitor, single point]",
Cn1nc(-c2ccccc2)c(COC(=O)c2cccc(Cl)c2)c1S(=O)(=O)c1ccccc1,"inconclusive: 15.8 µM [inhibitor, partial curve, poor fit]",
COc1cc2ccccc2cc1C(=O)NC(=S)Nc1cc(C(=O)O)ccc1C,inactive,
Cc1nc2c(C)cccc2c(SC(=N)N)c1CC=C(Cl)Cl,,inactive: -6.13% [at 7.67 µM]
COc1ccc(C2NCCc3c2[nH]c2ccccc32)cc1COc1ccc(F)cc1 (centres undefined),inactive,
O=C(C1=C[C@H](c2ccc(C(F)(F)F)cc2)C[C@H](OCc2ccc(CO)cc2)O1)N1CCN(Cc2ccc3c(c2)OCO3)CC1,"inconclusive: 6.31 µM [activator, partial curve]",
O=C(Cn1c(NCCO)nc2ccccc21)c1cccs1,"inconclusive: 3.16 µM [inhibitor, single point]",
CC1CCCN(S(=O)(=O)c2ccc(S(=O)(=O)NC(C)c3cccs3)cc2)C1 (centres undefined),"inconclusive: 10 µM [inhibitor, partial curve]",
O=C(NCc1ccccc1)C1=C[C@@H](c2ccccc2)C[C@@H](OCc2ccc(CO)cc2)O1,"inconclusive: 12.6 µM [activator, single point]",
Cn1cccc1/C=C1\SC(=S)N(NC(=O)c2ccccc2Cl)C1=O,inactive,
CC(=O)N[C@H]1C[C@@H]1c1ccccc1,"inconclusive: 25.1 µM [inhibitor, single point]",
CCN(C(=O)c1cnc(NC(C)C)cc1C(F)(F)F)c1ccc(Cl)cc1Cl,"inconclusive: 10 µM [activator, partial curve]",
CCn1c(=NC(=O)CSC(C)=O)sc2cc(F)ccc21,"inconclusive: 12.6 µM [inhibitor, single point]",
COc1ccc(C)cc1NC(=O)CN1CCN(c2ccc(F)cc2)CC1,"inconclusive: 12.6 µM [inhibitor, single point]",
Cc1cc(C)n(-c2nc(SCC(=O)NCC3CCCO3)c3c4c(sc3n2)CCCC4)n1 (centres undefined),"inconclusive: 10 µM [inhibitor, single point]",

SMILES,Potency,"activity change, negative = inhibition"
Cc1onc(-c2ccccc2)c1C(=O)Nc1cccc2nsnc12,"inconclusive: 25.1 µM [activator, single point]",
CSc1sc(C(=O)OC(C)C)c2c1C(=O)CC(C)(C)C2,"inconclusive: 10 µM [activator, partial curve]",
O=S(=O)(c1ccccc1)N(CC(O)Cn1c2ccccc2c2ccccc21)c1ccccc1 (centres undefined),"inconclusive: 10 µM [inhibitor, single point]",
CC(C)Oc1cccc(C(=O)NC(=S)Nc2ccc(N3CCN(C)CC3)cc2)c1,inactive,
CC1=C(C(=O)Nc2ccccc2)C(c2ccccc2[N+](=O)[O-])NC(=O)N1 (centres undefined),inactive,
CCCCNC(=O)C1CCCN1C(=O)NC1CCCCC1 (centres undefined),"inconclusive: 0.0079 µM [inhibitor, partial curve, poor fit]",
COc1ccc(-c2nc(C)ncc2N=Nc2ccccc2)cc1,"inconclusive: 20 µM [inhibitor, single point]",
CCC/C(O)=C1\C(=O)CC(C)(C)CC1=NCc1ccccc1,"inconclusive: 25.1 µM [inhibitor, single point]",
CCCCCc1c(C)nc(Nc2ccccc2)[nH]c1=O,"inconclusive: 10 µM [inhibitor, partial curve]",
COc1ccccc1-c1cc(C(F)(F)F)nc(S(=O)(=O)CCCC(=O)O)n1,"inconclusive: 25.1 µM [inhibitor, single point]",
O=c1c2c3c(sc2n2c(=S)[nH]nc2n1-c1ccccc1)CCC3,inactive,
C=CCOc1ccc(/C=C2\SC(=Nc3cccnc3)NC2=O)cc1,"inconclusive: 12.6 µM [inhibitor, single point]",
O=C(Cn1ncc2c(=O)oc3ccccc3c21)NCCC1=CCCCC1,"inconclusive: 3.16 µM [inhibitor, full curve, poor fit]",
O=C(NCCc1ccccc1)c1ccc2nc(-c3ccco3)c(-c3ccco3)nc2c1,"inconclusive: 25.1 µM [inhibitor, single point]",
O=C(Nc1ccccc1N1CCOCC1)c1cc2c(s1)CCCCC2,"inconclusive: 10 µM [inhibitor, single point]",
CCOc1cc(CNC(C)(C)CO)cc(Br)c1OCc1ccc(Cl)cc1Cl,"inconclusive: 20 µM [inhibitor, single point]",
O=C(NC(=S)Nc1ccc(Cl)cc1)c1ccccc1,"inconclusive: 25.1 µM [activator, single point]",
COc1ccc(C(C(=O)NC2CCCCC2)N(C(=O)Cc2c[nH]c3ccccc23)c2ccccc2C)cc1OC (centres undefined),inactive,
COC(=O)c1c(NC(=S)Nc2ccc(CC(=O)O)cc2)sc(C)c1C,inactive,
c1ccc(Cn2nnnc2C(c2cccs2)N2CCc3ccccc3C2)cc1 (centres undefined),"inconclusive: 12.6 µM [inhibitor, partial curve]",
CN(C)S(=O)(=O)c1ccc(-c2csc(N/N=C/c3ccc(O)cc3)n2)cc1,active: 12.6 µM,
Clc1ccc(Cn2ncc3c(N4CCCCC4)ncnc32)c(Cl)c1,"inconclusive: 12.6 µM [inhibitor, single point]",
O=S(Cc1cc(Sc2ccccc2)nc(-c2ccccc2)n1)c1ccccc1 (centres undefined),"inconclusive: 10 µM [inhibitor, partial curve]",

SMILES,Potency,"activity change, negative = inhibition"
COc1cc(C(=O)OC(C)C(=O)NCC2CCCCC2)cc(NC(=O)c2ccco2)c1OC (centres undefined),"inconclusive: 10 µM [inhibitor, single point]",
CCc1ccc(N=c2c([N+](=O)[O-])nn(-c3ccccc3)n2O)cc1,"inconclusive: 15.8 µM [inhibitor, partial curve]",
Cc1ccc(CSc2nnc3c(n2)OC2(Nc4ccccc4-3)C(=O)Nc3ccc(F)cc32)cc1 (centres undefined),inactive,
CC(C)/C(=N/Nc1ccccc1[N+](=O)[O-])c1ccccc1,"inconclusive: 2.51 µM [inhibitor, single point]",
COc1ccc2nc(N3CCCC3)[nH]c2c1,"inconclusive: 10 µM [inhibitor, partial curve]",
CCc1ccc2[nH]c(=O)c(CN(Cc3nnnn3C3CCCC3)C3CCCCC3)cc2c1,"inconclusive: 7.94 µM [inhibitor, partial curve]",
O=S(=O)(/C(=C/c1ccc(C(F)(F)F)cc1)c1nc2ccccc2[nH]1)c1ccccc1,active: 6.31 µM,
CC(C)c1cc(-c2cc(C(=O)NCc3ccccc3)on2)nc(NC2CCCC2)n1,"inconclusive: 10 µM [inhibitor, single point]",
CCOC(=O)/C=c1\s/c(=C\c2ccc3cc(OC)ccc3c2)c(=O)n1CC(=O)NCc1ccc2c(c1)OCO2,inactive,
CC1(C)Oc2ccc3ccc(=O)oc3c2/C(=C/Nc2ccccn2)C1=O,"inconclusive: 2.51 µM [inhibitor, full curve]",
Cc1sc(NC(=O)c2ccco2)c(C(c2cccnc2)N2CCN(C)CC2)c1C (centres undefined),"inconclusive: 10 µM [inhibitor, partial curve]",
O=c1cc(N2CCN(c3ccc(F)cc3)CC2)[nH]c(=O)n1C1CCCCC1,inactive,
Cn1c(=O)c(N)c2c3c(c(Br)ccc31)C(=O)c1ccccc1-2,inactive,
Cc1ccc(S(=O)(=O)N2CCN(CC(=O)NC3CCCc4ccccc43)CC2)c(C)c1 (centres undefined),inactive,
COc1cc(C2Nc3ccc4ncccc4c3C3=C2C(=O)CC(C)(C)C3)cc(OC)c1O (centres undefined),inactive,
O=Cc1cccn1Cc1ccc(Cl)cc1Cl,inactive,
CC(C)(C)c1ccc(C(O)CCCN2CCC(C(O)(c3ccccc3)c3ccccc3)CC2)cc1 (centres undefined),"inactive and inconclusive: 12.6 µM [inhibitor, single point]",
N#CC1=C(S)N(c2ccccc2)C(c2cccs2)NC1=O (centres undefined),"inconclusive: 25.1 µM [inhibitor, partial curve, poor fit]",
CC(=O)Nc1cnc2ccccc2n1,inactive,
CCOC(=O)N1CCN(c2nc(-c3cccc(OC)c3)cc(C(F)(F)F)n2)CC1,"inconclusive: 12.6 µM [inhibitor, single point]",
CC1CCC(C(C)C)C(OC(=O)C[n+]2cc(-c3ccc(Cl)cc3)n3c2CCCCC3)C1 (centres undefined),"inconclusive: 12.6 µM [inhibitor, single point]",
Cc1ccc(-c2nnn(CC(=O)N(CCN3CCOCC3)C(C(=O)NC(C)(C)C)c3ccc(C)o3)n2)cc1 (centres undefined),inactive,
CCCCC#Cc1ccccc1CC(=O)Nc1ccccc1,inactive,
